The full ranking holds about 33,000 sequences; the median of “E-score (-0.5 to 0.5)” is about -0.035, and the highest 2% start at about 0.35. This is one part of the list.
Biological target: T1, Pdr3 (UniProt P33200)
T1 sequence: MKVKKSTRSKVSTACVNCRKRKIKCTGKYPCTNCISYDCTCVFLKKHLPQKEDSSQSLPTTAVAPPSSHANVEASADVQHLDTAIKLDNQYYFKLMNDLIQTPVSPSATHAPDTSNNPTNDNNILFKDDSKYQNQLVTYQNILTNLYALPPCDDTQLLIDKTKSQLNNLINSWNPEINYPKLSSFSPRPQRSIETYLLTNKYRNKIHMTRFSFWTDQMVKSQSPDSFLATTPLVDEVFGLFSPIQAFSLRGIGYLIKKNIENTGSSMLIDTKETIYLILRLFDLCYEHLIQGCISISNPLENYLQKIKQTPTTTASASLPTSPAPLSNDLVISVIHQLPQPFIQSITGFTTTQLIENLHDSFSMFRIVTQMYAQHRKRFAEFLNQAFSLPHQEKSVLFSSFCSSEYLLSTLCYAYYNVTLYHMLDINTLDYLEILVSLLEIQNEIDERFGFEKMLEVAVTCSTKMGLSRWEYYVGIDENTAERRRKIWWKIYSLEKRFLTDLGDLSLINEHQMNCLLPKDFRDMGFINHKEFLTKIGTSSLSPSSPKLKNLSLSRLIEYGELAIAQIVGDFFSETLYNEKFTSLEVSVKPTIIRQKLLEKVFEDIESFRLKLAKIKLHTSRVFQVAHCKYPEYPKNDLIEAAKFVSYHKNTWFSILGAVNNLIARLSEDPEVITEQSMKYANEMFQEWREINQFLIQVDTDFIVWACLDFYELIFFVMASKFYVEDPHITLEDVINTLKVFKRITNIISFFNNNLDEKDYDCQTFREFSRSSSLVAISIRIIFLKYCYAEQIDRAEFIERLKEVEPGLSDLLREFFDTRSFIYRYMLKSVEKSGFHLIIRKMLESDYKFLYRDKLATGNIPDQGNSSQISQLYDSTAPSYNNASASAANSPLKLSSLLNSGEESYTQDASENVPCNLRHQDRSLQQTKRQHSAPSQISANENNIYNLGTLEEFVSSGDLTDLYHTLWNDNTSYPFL
Experiment: PBM E-score (8-mer binding enrichment) (E-score (-0.5 to 0.5)); higher = stronger / more preferred TF binding; most listed sequences are background and not binding sites
Settings: protein concentration: 200 nM; construct: GST-full length
Procedure: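 Universal 'all 10-mer' protein binding microarrays (Agilent AMADID 015681) probed with GST-tagged S. cerevisiae TFs (full-length or DBD) made by in vitro transcription/translation (PURExpress), about 100-200 nM. Bound TF was detected with fluorescent anti-GST. Each ungapped 8-mer (which stands for itself and its reverse complement) is scored by the PBM enrichment score (E-score), a modified Wilcoxon-Mann-Whitney statistic from -0.5 to +0.5, computed with the Universal PBM Analysis Suite. Scale: above 0.35 generally sequence-specific binding.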

Row | Sequence | PBM E-score
1 | CTCATGAA | -0.123
2 | ATAAACAA | 0.0179
3 | CAGGGGCA | -0.113
4 | CTCCTTCA | -0.346
5 | AGGGATAT | -0.148
6 | CACACTAC | -0.0605
7 | AATTTAAC | 0.0759
8 | CCGTATCC | 0.266
9 | CATGTGCC | -0.0931
10 | ATCCACGG | 0.353
11 | GTCCCGTA | 0.159
12 | AGCAACCG | -0.0638
13 | CATCAGGG | 0.0403
14 | AACGGGCT | -0.0242
15 | GGTGATTA | 0.0475
16 | ACCCTCCA | -0.122
17 | AATCGGCC | 0.242
18 | CCGATCCA | 0.155
19 | AAAGTTTC | 0.0419
20 | GAGTCGCA | -0.306
21 | CAGGTGAG | -0.214
22 | GGCAATGA | -0.134
23 | CACGCTGG | -0.129
24 | CAAGTACA | -0.14
25 | CTGACTTC | 0.0429

Row | Sequence | PBM E-score
26 | GGCCCCAC | 0.0764
27 | AAGGATTA | -0.145
28 | GTACATTA | -0.102
29 | AGGTTGAC | -0.239
30 | AACTTGCG | -0.0982
31 | ATCAGACA | -0.0927
32 | CTAGTTAC | -0.0807
33 | CCTTCTCC | -0.102
34 | CCAACGTC | -0.16
35 | CTCAATTA | -0.13
36 | CGACACGA | 0.197
37 | AACGAAGC | -0.0271
38 | ACCTGCAT | -0.0498
39 | CTAATAAG | -0.267
40 | ATCCTCAT | -0.195
41 | AGGCAGTC | 0.0698
42 | GGTCCGCA | 0.28
43 | AAACCTGT | -0.149
44 | ACTAGCAT | -0.0947
45 | ACATATTC | 0.0102
46 | CAGACGGA | 0.3
47 | CGCATACC | 0.219
48 | AAGGCATG | -0.23
49 | AGGCGTAA | -0.105
50 | AGATACCA | 0.129

Row | Sequence | PBM E-score
51 | AGCGGAAA | 0.391
52 | ACTCTCAT | -0.148
53 | CCATGTAA | 0.075
54 | GGCTGTCA | -0.256
55 | ACAGGGAG | -0.156
56 | CCGAACTC | 0.077
57 | AGTGCAGG | -0.111
58 | TCAGGCCA | -0.0251
59 | AGTGTTAG | 0.0165
60 | AGTCATTG | -0.209
61 | CCACGGCA | 0.262
62 | TAAGGCAA | -0.112
63 | ATACCTTA | -0.144
64 | ACCCGACG | 0.264
65 | CATAGGAG | -0.201
66 | ACTAACCA | -0.0352
67 | GCGCCTAA | 0.069
68 | AGAGATTA | -0.0924
69 | AGGGGGAG | -0.225
70 | AGCCGTTG | 0.00388
71 | ACTGAAGA | 0.0502
72 | ATCTGAAT | -0.0183
73 | CCCGGCGC | 0.26
74 | CCGTTGCC | 0.215
75 | CACCGAAA | 0.116

Row | Sequence | PBM E-score
76 | CTCACAGC | -0.12
77 | ACCAATTG | -0.136
78 | ATCTGCGG | 0.19
79 | AAATCCTA | -0.0767
80 | AGAACCGG | 0.316
81 | ACGCCTCC | 0.0133
82 | ATCCCCAG | -0.152
83 | CTTTCCAA | -0.0271
84 | AAGCACAT | 0.0452
85 | AACTCGGA | 0.296
86 | AGACGTCA | -0.117
87 | AAGTTTGA | 0.0868
88 | CACGAGCC | -0.155
89 | ACGTCCGA | 0.173
90 | AGTCTTAC | -0.212
91 | AGCTTGCA | -0.0946
92 | AAGATGTC | 0.0418
93 | AATCGTGT | 0.0849
94 | CGGCAGCC | 0.358
95 | AATCTTAC | 0.106
96 | AGTCCATA | -0.189
97 | GATCCGAC | 0.193
98 | ACTCGGCT | 0.0466
99 | CATGGTGG | -0.00931
100 | CGTATTCC | 0.258

Row | Sequence | PBM E-score
101 | GCAGACCC | -0.0715
102 | AATCCCGG | 0.407
103 | GGCAGCAA | 0.0329
104 | ACACCCTC | -0.0138
105 | ATGCGACA | -0.0464
106 | GGCCGGCC | 0.326
107 | GCGAACGA | -0.0923
108 | CTTCTGCA | -0.0542
109 | CTCCAGGC | -0.271
110 | CTTGCGGC | 0.172
111 | AACGCACG | 0.115
112 | GAATCTGA | 0.0387
113 | TCACACAA | -0.0623
114 | ACAATTTA | -0.0999
115 | ACTGGTTG | 0.0224
116 | AGTCAGAC | -0.108
117 | GAAAATGC | 0.0641
118 | CAGATACC | -0.112
119 | AGCCGATC | 0.14
120 | CCTATCAG | -0.216
121 | ATCAACGG | 0.247
122 | GCAATGCA | -0.133
123 | AGAGCCTG | -0.347
124 | ACTTTGGG | -0.115
125 | AAGGTACG | -0.0286

Row | Sequence | PBM E-score
126 | CAGACTGC | -0.25
127 | GTGAATGA | -0.0292
128 | TCTAAGAA | 0.0221
129 | ACAATTAC | -0.127
130 | AGACCGCG | 0.161
131 | ACTCGTAG | -0.162
132 | GCCAGCGC | -0.0589
133 | AACCCCTA | -0.108
134 | AGAGATAG | -0.0678
135 | GCCGGGCA | 0.282
136 | ATACTTGA | -0.331
137 | ACCGCTAT | 0.0128
138 | TAAGGAGA | -0.256
139 | ATCCACCG | 0.13
140 | CCCTTGAA | -0.0712
141 | ATTTGTGC | -0.151
142 | CCACCTGG | -0.177
143 | ATGTTTCG | 0.0256
144 | CGTGGTAA | -0.0844
145 | CTCTAACA | -0.246
146 | AAGTGGCG | 0.0522
147 | CATTCTGG | -0.137
148 | CTGAAGGA | -0.178
149 | AGTAGTCC | 0.122
150 | CTCTAGTA | 0.0263

Row | Sequence | PBM E-score
151 | AATTCTTC | -0.0848
152 | ACCACGAT | -0.029
153 | GCTCGTGA | -0.0277
154 | CCTCTTTC | -0.00122
155 | GTCCACCA | -0.0733
156 | CAGTTTGG | -0.0379
157 | GCGTGAGC | 0.0731
158 | CATTACAC | -0.0676
159 | GGTTCTAA | 0.0295
160 | CGATATGC | 0.0817
161 | TGTTTTAA | -0.0228
162 | CGAATGGA | -0.0273
163 | CATACACA | -0.275
164 | AATTAAAA | -0.0728
165 | ATTCCCGA | 0.212
166 | ACGTTTAC | -0.169
167 | CATCCGGA | 0.426
168 | ACCCACCA | -0.0903
169 | ATGTCGAA | 0.0136
170 | GGGGCGGA | 0.359
171 | TACACTCA | -0.091
172 | AATGAATG | 0.113

From the supplement of paper PMC3334620
